# The full ranking holds about 110,000 compounds; the median of “z-score” is about -0.1, and the highest 2% start at about 2. Some of the results follow. Calls of active or inactive are those of the source.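 Rule for the calls: active = z-score in the third read window above 3 or below -3; inactive = the rest.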
# Target: Metabotropic glutamate receptor 8 (Rattus norvegicus) (UniProt P70579)
# Test: rat mGluR8 modulators via GIRK flux, primary screen, cell-based, thallium flux, HTS (AID 488969)
# Conditions: HEK293 rat mGluR8, GIRK (G protein-gated inwardly rectifying potassium channel) thallium flux, FluoZin2; at 10 µM; stronger effect = higher value; submaximal glutamate (EC20) added with thallium
# Sequence of UniProt P70579 (P70579 whole entry, looked up): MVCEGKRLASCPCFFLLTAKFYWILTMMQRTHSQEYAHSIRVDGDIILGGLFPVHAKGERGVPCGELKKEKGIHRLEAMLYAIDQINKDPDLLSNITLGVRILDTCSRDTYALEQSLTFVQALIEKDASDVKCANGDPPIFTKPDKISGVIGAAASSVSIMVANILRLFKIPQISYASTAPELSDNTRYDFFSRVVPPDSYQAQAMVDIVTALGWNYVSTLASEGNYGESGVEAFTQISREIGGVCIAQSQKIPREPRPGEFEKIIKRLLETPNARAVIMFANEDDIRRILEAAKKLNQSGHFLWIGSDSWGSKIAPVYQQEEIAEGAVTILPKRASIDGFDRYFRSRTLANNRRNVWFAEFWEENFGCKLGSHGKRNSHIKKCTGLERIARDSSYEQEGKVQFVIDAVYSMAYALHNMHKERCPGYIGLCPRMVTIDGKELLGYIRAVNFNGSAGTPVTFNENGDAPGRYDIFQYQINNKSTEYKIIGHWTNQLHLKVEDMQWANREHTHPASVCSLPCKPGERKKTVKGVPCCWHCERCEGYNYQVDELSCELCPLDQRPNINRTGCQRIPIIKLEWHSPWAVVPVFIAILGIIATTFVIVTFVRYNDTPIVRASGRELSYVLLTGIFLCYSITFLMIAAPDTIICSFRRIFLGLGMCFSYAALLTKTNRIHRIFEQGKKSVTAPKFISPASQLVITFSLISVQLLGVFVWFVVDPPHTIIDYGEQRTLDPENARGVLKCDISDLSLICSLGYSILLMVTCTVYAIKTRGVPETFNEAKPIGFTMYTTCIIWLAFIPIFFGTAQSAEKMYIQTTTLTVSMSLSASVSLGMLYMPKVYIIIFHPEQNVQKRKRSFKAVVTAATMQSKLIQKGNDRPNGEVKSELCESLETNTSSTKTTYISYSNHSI
row,SMILES,z-score
1,O=C(NCc1nnc(SC/C=C/c2ccccc2)o1)c1ccco1,-0.142
2,CNC(=O)CSc1nc2nc(C)cc(C)n2n1,0.206
3,CN1CCN(C(=O)c2ccc(-c3nn(C)c(=O)c4ccccc34)cc2)CC1,-0.877
4,CCNC(=S)NNC(=O)C1CCCCC1,-0.0378
5,C=CCn1c(SCCOc2ccc(OC)cc2)nnc1C(NC(=O)c1ccc(OC)cc1)C(C)C (configuration not stated),-0.685
6,FC(F)Sc1ccc(-n2cc(-c3ccccc3)[n+]3c2CCC3)cc1,-0.0431
7,CC(C)NC(=O)c1ccccc1NC(=O)C1CCCO1 (configuration not stated),-0.306
8,CCN(CC)C(=O)CSc1nc2ccccc2c(=O)n1CC,-0.997
9,Cc1cc(NC(=O)CS(=O)(=O)c2cn(Cc3ccccc3Cl)c3ccccc23)no1,0.0873
10,CCOC(=O)C1CCN(S(=O)(=O)c2ccc(Br)c(OCC)c2)CC1,-0.359
11,O=C(NCCN1CCOCC1)c1cc2cc(Cl)cc(Cl)c2oc1=O,-0.347
12,COc1cc(-c2nnc(SCC(=O)/C(C#N)=C(\C)N)o2)cc(OC)c1OC,0.108
13,Cc1nn(C(C)C(=O)NCCCc2ccccc2)c(=O)c2cc3occc3n12 (configuration not stated),0.103
14,CCC(=O)Nc1ccc(Cl)c(NC(=S)NC(=O)c2ccco2)c1,-0.0339
15,Nc1nnc(SCC(=O)OCc2ccc(Cl)c(Cl)c2)s1,-0.293
16,COc1ccc(C(N)=O)cc1N,-0.409
17,CCN(C(=O)CSc1nnc(NC2CCCCC2)s1)C1CCS(=O)(=O)C1 (configuration not stated),-0.185
18,CC1CCN(c2ccc(NC(=S)NC(=O)c3ccco3)cc2)CC1,active: 4.93
19,N#CC1=C(SCc2ccccc2)NC(=O)C(C#N)C12CCCC2 (configuration not stated),-0.595
20,CCc1c(C(C)S(=O)(=O)c2ccc(C)cc2)[nH]c(=O)n1-c1ccc(C)cc1 (configuration not stated),0.315
21,COC(=O)C1=C(C(=O)OC)C2(OC1c1cccc(F)c1)C(=O)c1ccccc1C2=O (configuration not stated),-0.142
22,O=c1[nH]c(Cc2ccc(F)cc2)nc2scc(-c3ccc(F)cc3)c12,-1.4
23,O=C(c1coc2ccc(O)c(CN3CCOCC3)c12)C1CC1,-0.1
24,COc1cc2nc(SCC(N)=O)n(CCC3=CCCCC3)c(=O)c2cc1OC,0.0547

row,SMILES,z-score
1,Cc1cc(S(=O)(=O)Nc2ccccc2C)ccc1F,0.106
2,CCOc1ccc(OCC)c(C2C(C#N)=C(N)N(c3cccnc3)C3=C2C(=O)CC(C)(C)C3)c1 (configuration not stated),-0.418
3,Cc1nn(-c2ccccc2)c(C)c1C(=O)OCC(=O)N1CCN(S(=O)(=O)c2ccccc2)CC1,-0.781
4,Cc1ccc(S(=O)(=O)Nc2cc(C(=O)Nc3cc(C)cc(C)c3)ccc2Cl)cc1,-0.242
5,O=C1C2C3C=CC(C3)C2C(=O)N1CCC(=O)N1CCc2ccccc21 (configuration not stated),0.17
6,CCCCC(=O)NS(=O)(=O)c1ccc(N=NN2CCCCC2)cc1,-0.158
7,Cc1ccc2c(c1)cc(CN(Cc1ccc3c(c1)OCO3)C(=O)c1cnccn1)c1nnnn12,-0.0566
8,O=C1CCCC2=C1C(c1ccco1)Nc1ccc(C(=O)c3ccccc3)cc1N2 (configuration not stated),-0.471
9,COc1cc2c(cc1OC)CN(S(=O)(=O)c1ccc3c(c1)OCCO3)CC2,0.172
10,CCCCSc1nnc(-c2ccc(NC(=O)CCc3ccccc3)cc2)n1C,0.441
11,CC(C)(C)c1ccc(OCCC(=O)NC2=NCCS2)cc1,0.503
12,COc1ccccc1/C=C/C=N/NC(=O)CCn1nnc2ccccc21,-0.626
13,CCOC(=O)c1c(-c2ccccc2)csc1/N=C/C1C(=O)CCCC1=O,0.349
14,CCC(C)NC(=O)Cn1nc(C(F)(F)F)c2c1CCCC2 (configuration not stated),-0.266
15,COc1ccc(/C=C(\C#N)C(=O)NCC2CCCO2)cc1OC (configuration not stated),0.621
16,CCOC(=O)C(C)c1c(C)[nH]c(=S)[nH]c1=O (configuration not stated),0.0905
17,O=C(NCc1cccs1)C(Cc1ccccc1)NS(=O)(=O)c1cccs1 (configuration not stated),0.468
18,CCCc1nnc(SCC(=O)N2CCCCC2)n1CC1CCCO1 (configuration not stated),-0.137
19,CC(C)(C)c1ccc(S(=O)(=O)CCc2ccccn2)cc1,-0.00612
20,CCCCOc1ccc(-c2cc(C(=O)NNC(=S)NCC)c3ccccc3n2)cc1,-0.155
21,COCCn1c(=O)[nH]c2cc(C(=O)NCC3CCCO3)ccc2c1=O (configuration not stated),0.124
22,CCCCCc1c(O)nc(SCC(=O)O)[nH]c1=O,-0.256
23,C=CCNC(=O)C(C)Sc1ccc(Cl)cc1 (configuration not stated),0.716
24,CCCCC(=O)Nc1ccc(N2CCN(S(C)(=O)=O)CC2)cc1,-0.297

row,SMILES,z-score
1,COC(=O)NC1CCC(NC(=O)OC)CC1 (configuration not stated),0.304
2,O=C(CNC(=O)c1ccccc1F)OCC(=O)N1CCCc2ccccc21,-0.162
3,C=C(C)CC1(NC(C)c2ccccc2)CCCCC1 (configuration not stated),0.462
4,CN(C(=O)CSc1nnc(Cc2ccccc2F)n1N)C1CCS(=O)(=O)C1 (configuration not stated),-0.192
5,S=c1[nH]nc(Cc2ccccc2)n1-c1ccccc1,0.938
6,CCCC(=O)c1ccc(N2CCN(S(=O)(=O)c3ccccc3)CC2)c(F)c1,-0.3
7,CCCCNC(=S)NNC(=O)c1sccc1C,-0.114
8,O=C(CSc1nnc(-c2ccc(O)cc2)n1Cc1ccco1)N1CCc2ccccc2C1,-1.85
9,COc1cc(CN2CCC(C(=O)N3CCN(c4ccccc4F)CC3)CC2)cc(OC)c1OC,-1.08
10,CC(=O)C1=C(c2ccc(Br)cc2)C(=O)c2ccccc2C1=O,-1.75
11,O=C1CN(C(=O)COC(=O)COc2ccc3c(c2)CCC3)c2ccccc2N1,0.478
12,CN(Cc1ccccc1)S(=O)(=O)c1ccc(NS(=O)(=O)Cc2ccccc2)cc1,-0.076
13,N#Cc1c(Nc2ccc(F)cc2)sc(C(=O)c2ccc(F)cc2)c1N,-0.0216
14,COc1cccc(Cn2nnc(C(=O)Nc3ccc(C)cc3)c2N)c1,0.294
15,Cc1cc(C)nc(SCC(=O)Nc2ncc(Cc3cccc(Cl)c3Cl)s2)n1,-0.305
16,Cc1ccc(Nc2ncc3c(n2)CC(c2ccco2)CC3=O)c(C)c1 (configuration not stated),-0.858
17,Cc1ccccc1NS(=O)(=O)c1cc(C(=O)N2CCc3ccccc3C2)ccc1C,-0.344
18,Cc1cccc(/C=C2/C(=O)/C(=C/c3ccccc3C)C3CCC2N3C)c1 (configuration not stated),-0.101
19,O=C1CN(CC(=O)Nc2ccc(Cl)cc2)CCN1,-0.0523
20,CC(=O)Nc1ccc(C(=S)NCc2ccco2)cc1,-0.222
21,O=C(NCc1ccco1)c1cc(-c2ccccc2)nc2ccccc12,-0.694
22,Cc1nnc(NC2=NCCC2)o1,1.53
23,C=CCn1c(SCC(=O)Nc2nnc(CC)s2)nnc1-c1cccnc1,-0.71
24,CCOC(=O)C1CCCN(Cc2sccc2C)C1 (configuration not stated),-0.208

# Source: PubChem BioAssay AID488969 (Vanderbilt High Throughput Screening Facility, 2010)
